Legend:
Assay type in all cases: cell-based
[1] = system: Human keratinocytes (HaCaT cells); assay: human cytotoxicity assay in vitro (CellTiter-Glo), keratinocytes; parameters: key: 4: compounds inhibiting cell viability 50% or more at concentrations of 5 μM or less; 3: compounds causing more than 50% inhibition of cell viability at 10 μM; compounds causing >50% inhibition of cell viability at 25 μM; 1: compounds causing less than 50% inhibition of cell viability at 50 μM; compounds not causing loss of cell viability at concentrations of 50 μM or higher; details: cytotoxicity class
[2] = system: Human hepatocytes (HepaRG cells); assay: human cytotoxicity assay in vitro (CellTiter-Glo), hepatocytes; details: cytotoxicity class
[3] = system: Streptococcus pneumoniae (Chester, ATCC49619); assay: broth microdilution MIC assay, Streptococcus pneumoniae; details: MIC100 class score, 24 h

| Structure (SMILES) | cytotoxicity cell line K (keratinocytes) [1] | cytotoxicity cell line H (hepatocytes) [2] | Antibacterial activity Streptococcus pneumoniae [3] |
| --- | --- | --- | --- |
| Cc1nc(-c2ccc(-c3ccc(Cl)cc3Cl)o2)[nH]c1-c1ccccc1 [Compound 1] | 2 | – | – |
| Cc1[nH]c(-c2ccc(-c3cccc(Cl)c3Cl)o2)nc1-c1ccccc1 [Compound 2] | 1 | – | – |
| Cc1[nH]c(-c2ccc(-c3ccccc3Cl)o2)nc1-c1ccccc1 [Compound 3] | 1 | – | – |
| Cc1nc(-c2ccc(-c3cccc(Cl)c3)o2)[nH]c1-c1ccccc1 [Compound 4] | 2 | – | – |
| Cc1[nH]c(-c2ccc(-c3ccc(Cl)cc3)s2)nc1-c1ccccc1 [Compound 6] | 0 (compounds not causing loss of cell viability at concentrations of 50 μM or higher) | 0 (compounds without signs of cell viability loss at concentrations of 50 μM or higher) | – |
| Cc1[nH]c(-c2ccc(-c3ccc(F)cc3)s2)nc1-c1ccccc1 [Compound 7] | 2 | 1 (compounds not causing a loss of viability at concentrations between 25 and 50 μM) | – |
| Cc1[nH]c(-c2cc(C)n(-c3ccc(F)c(F)c3F)c2C)nc1-c1ccccc1 [Compound 10] | 2 | – | – |
| Cc1[nH]c(-c2csc(-c3ccc(F)cc3)n2)nc1-c1ccccc1 [Compound 11] | 2 | 1 (compounds not causing a loss of viability at concentrations between 25 and 50 μM) | – |
| Cc1[nH]c(-c2ccc(-c3cccc(Cl)c3)s2)nc1-c1ccccc1 [Compound 12] | 2 | 1 (compounds not causing a loss of viability at concentrations between 25 and 50 μM) | – |
| Cc1[nH]c(-c2ccc(-c3cccc(Br)c3)s2)nc1-c1ccccc1 [Compound 13] | 1 | 1 (compounds not causing a loss of viability at concentrations between 25 and 50 μM) | – |
| Cc1[nH]c(-c2csc(-c3cccc(Br)c3)n2)nc1-c1ccccc1 [Compound 14] | 1 | 1 (compounds not causing a loss of viability at concentrations between 25 and 50 μM) | – |
| Cc1nc(-c2ccc(-c3ccccc3OC(F)(F)F)o2)[nH]c1-c1cccc(Cl)c1 [Compound 21] | 2 | – | 4 (MIC of 1 μg/ml or less for preventing streptococcal growth 100% (MIC100)) |
| Cc1[nH]c(-c2ccc(-c3ccccc3C(F)(F)F)o2)nc1-c1cccc(Cl)c1 [Compound 22] | 2 | – | – |
| Cc1[nH]c(-c2ccc(-c3ccccc3OC(F)(F)F)o2)nc1-c1ccc(Cl)cc1 [Compound 24] | 2 | – | 4 (MIC of 1 μg/ml or less for preventing streptococcal growth 100% (MIC100)) |
| Cc1[nH]c(-c2ccc(-c3ccccc3C(F)(F)F)o2)nc1-c1ccc(Br)cc1 [Compound 25] | 0 (compounds not causing loss of cell viability at concentrations of 50 μM or higher) | 0 (compounds without signs of cell viability loss at concentrations of 50 μM or higher) | – |
| Cc1[nH]c(-c2ccc(-c3ccccc3OC(F)(F)F)o2)nc1-c1ccc(C(F)(F)F)cc1 [Compound 26] | 0 (compounds not causing loss of cell viability at concentrations of 50 μM or higher) | 1 (compounds not causing a loss of viability at concentrations between 25 and 50 μM) | – |
| Cc1[nH]c(-c2ccc(-c3ccccc3OC(F)(F)F)o2)nc1Cc1ccc(Br)cc1 [Compound 30, 4-(4-Bromo-benzyl)-5-methyl-2-[5-(2-trifluoromethoxy-phenyl)-furan-2-yl]-1H-imidazole] | 3 | – | 4 (MIC of 1 μg/ml or less for preventing streptococcal growth 100% (MIC100)) |
| COc1ccc(-c2ccc(-c3nc(C)c(-c4ccccc4)[nH]3)o2)c(C(F)(F)F)c1 [Compound 31] | 0 (compounds not causing loss of cell viability at concentrations of 50 μM or higher) | – | – |
| Cc1nc(-c2ccc(-c3cc(F)ccc3C(F)(F)F)o2)[nH]c1-c1ccccc1 [Compound 31a] | 1 | – | – |
| Cc1nc(-c2ccc(-c3cccc(OC(F)(F)F)c3)o2)[nH]c1-c1ccccc1 [Compound 34] | 2 | – | – |
| Cc1nc(-c2ccc(-c3cc(C(F)(F)F)cc(C(F)(F)F)c3)o2)[nH]c1-c1ccccc1 [Compound 35] | 1 | 1 (compounds not causing a loss of viability at concentrations between 25 and 50 μM) | – |
| Cc1[nH]c(-c2cc(C)n(-c3cccc(C(F)(F)F)c3)c2C)nc1-c1ccccc1 [Compound 36] | 2 | – | – |
| Cc1nc(-c2ccc(-c3cccc(OC(F)(F)F)c3)o2)[nH]c1-c1ccc(F)cc1 [Compound 37] | 2 | – | 4 (MIC of 1 μg/ml or less for preventing streptococcal growth 100% (MIC100)) |
| Cc1[nH]c(-c2ccc(-c3ccc(Cl)c(C(F)(F)F)c3)o2)nc1-c1ccccc1 [Compound 39] | 2 | 1 (compounds not causing a loss of viability at concentrations between 25 and 50 μM) | – |
| Cc1[nH]c(-c2ccc(-c3cc(C(F)(F)F)ccc3Cl)o2)nc1-c1ccccc1 [Compound 40] | 1 | – | – |

| Structure (SMILES) | cytotoxicity cell line K (keratinocytes) [1] | cytotoxicity cell line H (hepatocytes) [2] | Antibacterial activity Streptococcus pneumoniae [3] |
| --- | --- | --- | --- |
| Cc1nc(-c2ccc(-c3ccc(Cl)c(OC(F)(F)F)c3)o2)[nH]c1-c1ccc(F)cc1 [Compound 43] | – | – | 4 (MIC of 1 μg/ml or less for preventing streptococcal growth 100% (MIC100)) |
| Cc1[nH]c(-c2ccc(-c3ccc(OC(F)(F)F)cc3)o2)nc1-c1ccc(Cl)cc1 [Compound 48] | 1 | – | 4 (MIC of 1 μg/ml or less for preventing streptococcal growth 100% (MIC100)) |
| Cc1[nH]c(-c2ccc(-c3ccc(C(F)(F)F)c(Cl)c3)o2)nc1-c1ccc(F)cc1 [Compound 49] | 2 | – | – |
| Cc1ccc(-c2ccc(-c3nc(-c4ccccc4)c(C)[nH]3)o2)cc1 [Compound 52] | 2 | – | – |
| CCc1ccc(-c2ccc(-c3nc(-c4ccccc4)c(C)[nH]3)o2)cc1 [Compound 53] | 1 | – | – |
| Cc1ccc(-c2ncc(-c3nc(-c4ccccc4)c(C)[nH]3)s2)cc1 [Compound 55] | – | 1 (compounds not causing a loss of viability at concentrations between 25 and 50 μM) | – |
| Cc1[nH]c(-c2cc(C)n(-c3ccc(C(C)C)cc3)c2C)nc1-c1ccccc1 [Compound 58] | 2 | – | 4 (MIC of 1 μg/ml or less for preventing streptococcal growth 100% (MIC100)) |
| Cc1[nH]c(-c2cc(C)n(-c3ccc4c(c3)CCC4)c2C)nc1-c1ccccc1 [Compound 59] | 2 | – | – |
| Cc1ccccc1-c1ccc(-c2nc(-c3ccccc3)c(C)[nH]2)o1 [Compound 61] | 2 | – | – |
| Cc1cccc(C)c1-c1ccc(-c2nc(-c3ccccc3)c(C)[nH]2)o1 [Compound 62] | 2 | – | – |
| FC(F)(F)c1ccccc1-c1ccc(-c2nc(Cl)c(-c3ccccc3)[nH]2)o1 [Compound 65] | – | – | 4 (MIC of 1 μg/ml or less for preventing streptococcal growth 100% (MIC100)) |
| Cc1ccccc1-c1c[nH]c(-c2ccc(-c3ccccc3OC(F)(F)F)o2)n1 [Compound 66] | 1 | – | 4 (MIC of 1 μg/ml or less for preventing streptococcal growth 100% (MIC100)) |
| FC(F)(F)Oc1ccccc1-c1ccc(-c2nc(-c3ccccc3Cl)c[nH]2)o1 [Compound 67] | 2 | – | – |
| FC(F)(F)Oc1ccccc1-c1ccc(-c2nc(-c3ccc(Cl)cc3Cl)c[nH]2)o1 [Compound 68] | 2 | – | – |
| CN(C)Cc1[nH]c(-c2ccc(-c3ccccc3C(F)(F)F)o2)nc1-c1ccccc1 [Compound 70] | 2 | – | – |
| Cc1nc(-c2ccc(-c3ccccc3N(C)C)o2)[nH]c1-c1ccccc1 [Compound 71] | 1 | – | – |
| Cc1[nH]c(-c2coc(-c3ccccc3C(F)(F)F)c2)nc1-c1ccccc1 [Compound 72] | 2 | – | – |
| Cc1[nH]c(-c2cnn(-c3ccccc3)n2)nc1-c1ccccc1 [Compound 73] | – | 1 (compounds not causing a loss of viability at concentrations between 25 and 50 μM) | – |
| CCCc1[nH]c(-c2ccc(-c3ccccc3Cl)s2)nc1C [Compound 82] | – | – | 4 (MIC of 1 μg/ml or less for preventing streptococcal growth 100% (MIC100)) |
| Cc1nc(-c2ccc(-c3ccccc3OC(F)(F)F)o2)[nH]c1CC(C)C [Compound 93] | – | – | 4 (MIC of 1 μg/ml or less for preventing streptococcal growth 100% (MIC100)) |
| CCCc1nc(-c2ccc(-c3ccccc3N(C)C)o2)[nH]c1C [Compound 98] | – | – | 4 (MIC of 1 μg/ml or less for preventing streptococcal growth 100% (MIC100)) |
| CCCc1[nH]c(-c2ccc(-c3ccc(Cl)cc3Cl)o2)nc1C [Compound 109] | – | – | 4 (MIC of 1 μg/ml or less for preventing streptococcal growth 100% (MIC100)) |
| CCCc1nc(-c2coc(-c3ccccc3C(F)(F)F)c2)[nH]c1C [Compound 112] | – | – | 4 (MIC of 1 μg/ml or less for preventing streptococcal growth 100% (MIC100)) |
| CCCc1nc(-c2csc(-c3ccccc3C(F)(F)F)c2)[nH]c1C [Compound 113] | – | – | 4 (MIC of 1 μg/ml or less for preventing streptococcal growth 100% (MIC100)) |
| CCCc1nc(-c2cc(C)c(-c3ccccc3C(F)(F)F)s2)[nH]c1C [Compound 115] | – | – | 4 (MIC of 1 μg/ml or less for preventing streptococcal growth 100% (MIC100)) |
